The source of these data is article PMC4336329 (PLoS ONE, 2015).

Among all 310,000 compounds or so, about 14,000 (4.5%) showed an effect of 50% or more. Effects have a minus sign here. The list shows a part of the results.
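Also: peak tail current of the secondary pulse compared with the same well before compound.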

This assay deals with human ether-à-go-go-related gene (hERG) potassium channel (human, UniProt Q12809). Description: primary screen, population patch clamp on CHO cells stably expressing hERG.
human ether-à-go-go-related gene (hERG) potassium channel, sequence (Q12809 whole entry, looked up): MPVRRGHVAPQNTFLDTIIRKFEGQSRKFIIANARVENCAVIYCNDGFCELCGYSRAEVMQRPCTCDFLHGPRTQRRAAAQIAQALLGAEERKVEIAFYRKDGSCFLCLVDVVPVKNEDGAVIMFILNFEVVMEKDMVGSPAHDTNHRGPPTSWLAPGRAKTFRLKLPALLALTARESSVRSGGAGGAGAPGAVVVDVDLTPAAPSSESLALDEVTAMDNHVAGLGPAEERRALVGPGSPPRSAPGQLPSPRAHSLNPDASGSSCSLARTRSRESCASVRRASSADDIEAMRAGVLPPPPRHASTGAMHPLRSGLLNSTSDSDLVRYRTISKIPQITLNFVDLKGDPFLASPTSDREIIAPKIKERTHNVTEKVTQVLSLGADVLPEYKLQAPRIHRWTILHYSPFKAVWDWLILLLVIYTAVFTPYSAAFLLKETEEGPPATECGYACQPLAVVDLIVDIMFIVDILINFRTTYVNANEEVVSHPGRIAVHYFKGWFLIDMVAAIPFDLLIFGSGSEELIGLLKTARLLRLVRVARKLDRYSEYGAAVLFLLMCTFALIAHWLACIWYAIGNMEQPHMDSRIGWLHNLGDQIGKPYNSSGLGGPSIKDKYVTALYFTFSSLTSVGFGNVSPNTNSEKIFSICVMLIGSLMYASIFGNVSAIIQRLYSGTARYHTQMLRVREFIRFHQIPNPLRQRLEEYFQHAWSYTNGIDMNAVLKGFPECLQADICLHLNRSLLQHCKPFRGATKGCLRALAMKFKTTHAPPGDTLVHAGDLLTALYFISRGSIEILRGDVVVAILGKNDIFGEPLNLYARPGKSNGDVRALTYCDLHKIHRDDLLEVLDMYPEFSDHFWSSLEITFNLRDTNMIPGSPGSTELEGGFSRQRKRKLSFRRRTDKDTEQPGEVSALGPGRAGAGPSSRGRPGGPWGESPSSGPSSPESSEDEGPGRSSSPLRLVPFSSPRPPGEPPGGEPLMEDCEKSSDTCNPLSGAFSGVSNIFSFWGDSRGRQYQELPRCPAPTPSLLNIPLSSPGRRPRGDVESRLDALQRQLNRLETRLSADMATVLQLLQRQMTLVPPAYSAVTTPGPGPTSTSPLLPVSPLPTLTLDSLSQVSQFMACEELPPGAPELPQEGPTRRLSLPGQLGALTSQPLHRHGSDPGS
For `C=CCn1c(NCc2ccccc2)nc2ccccc21`, the “hERG current change (%, negative = inhibition) at 10uM” value is recorded as -26.4%.
For `Cc1cccc(NC(=O)C2CCN(c3nc(C)cc(C)n3)CC2)c1`, the “hERG current change (%, negative = inhibition) at 10uM” value was -3.89%.
With `Cc1c(C)n(C)c2ccc(C(=O)NCCCN3CCCCC3)cc12`, the “hERG current change (%, negative = inhibition) at 10uM” value is listed as -17.2%.
As for `CC(NC(=O)CSc1n[nH]c(=O)[nH]c1=O)C1CC2CCC1C2` (centres unmarked), the “hERG current change (%, negative = inhibition) at 10uM” value is on record as 13.9%.
As for `CC(=O)Oc1ccccc1C(=O)Nc1ncc([N+](=O)[O-])s1`, the “hERG current change (%, negative = inhibition) at 10uM” value is recorded as -2.57%.
For `CC1CN(c2c3c(nc4ncnn24)CCCC3)CC(C)O1` (centres unmarked), the “hERG current change (%, negative = inhibition) at 10uM” value is -2.49%.
With `Cc1cc(-c2csc(NC(=O)c3cc4ccccc4o3)n2)c(C)n1C`, the “hERG current change (%, negative = inhibition) at 10uM” value was -1.53%.
As to `COc1ccc(NC(=O)c2nc[nH]c2C(=O)N[C@@H](C)C(=O)OC(C)(C)C)cc1`, the “hERG current change (%, negative = inhibition) at 10uM” value was 3.37%.
Turning to `COCC(=O)n1cc(C(=O)OC)c2ccccc21`, the “hERG current change (%, negative = inhibition) at 10uM” value is given as -1.02%.
On to `NC(=O)c1ccc(NC(=O)CSc2nnc(-c3cccnc3)n2Cc2ccco2)cc1`, for which the “hERG current change (%, negative = inhibition) at 10uM” value worked out at 6.87%.
In the case of `CCN(CC(=O)NCc1ccc(F)cc1)C(=O)Cc1c(F)cccc1Cl`, the “hERG current change (%, negative = inhibition) at 10uM” value was -37.6%.
Regarding `Cc1ccc(-c2csc3ncnc(N4CCN(C(=O)c5ccccc5)CC4)c23)cc1`, the “hERG current change (%, negative = inhibition) at 10uM” value is reported as -30.5%.
Turning to `Cc1c(F)cccc1NS(=O)(=O)c1ccc2c(c1)NC(=O)CO2`, the “hERG current change (%, negative = inhibition) at 10uM” value is reported as 4.42%.
For `COc1ccccc1N1CCN(C(=O)c2ccc(S(=O)(=O)N3CCCCC3)cc2)CC1`, the “hERG current change (%, negative = inhibition) at 10uM” value was -10.2%.
As to `O=C(Nc1cnn(Cc2ccc(F)cc2)c1)C(c1ccccc1)c1ccccc1`, the “hERG current change (%, negative = inhibition) at 10uM” value was -30.1%.
On to `O=C1CC(c2ccccc2)CN1C(=O)c1cccnc1` (centres unmarked), for which the “hERG current change (%, negative = inhibition) at 10uM” value is given as -2.28%.
Under `CC(C)c1cc2c(c(O)c1O)[C@@]13CCCC(C)(C)C1CC2OC3=O` (some centres unmarked) stands -0.339%.
Under `N/C(Cc1cccc2ccccc12)=N\OC(=O)c1cccs1` stands 10.2%; under `CN1CCN(NC(=O)c2cccs2)CC1.Cl`, -47.4%.
As for `O=C(CC1S/C(=N/N=C/c2ccco2)NC1=O)Nc1cccc(Cl)c1Cl` (centres unmarked), the “hERG current change (%, negative = inhibition) at 10uM” value amounted to 18.2%.
Take `O=C(CCc1ccccc1)Nc1ccccc1C(F)(F)F`: the “hERG current change (%, negative = inhibition) at 10uM” value stood at 1.73%.
Under `Cc1ccc(N(Cc2ccccc2O)C(=O)c2ccccc2F)cc1` stands 6.57%; under `O=C(CCC(=O)N1CCc2ccccc2C1)NCCc1ccc(Cl)cc1`, -32.9%.
Regarding `O=C(Cn1cc(C(F)(F)F)ccc1=O)N1CCN(S(=O)(=O)c2ccccc2)CC1`, the “hERG current change (%, negative = inhibition) at 10uM” value is recorded as 3.23%.
Turning to `Cc1ccc(S(=O)(=O)NCC(=O)OCC(=O)NCCc2ccccc2)cc1`, the “hERG current change (%, negative = inhibition) at 10uM” value is recorded as 9.61%.
With `COc1ccc(/C=N/NS(=O)(=O)c2ccc(NC(C)=O)cc2)cc1`, the “hERG current change (%, negative = inhibition) at 10uM” value was -8.43%.
For `O=C(O/N=C/c1ccc(Cl)cc1)C1CCCCC1`, the “hERG current change (%, negative = inhibition) at 10uM” value was found to be 9.03%.
In the case of `O=C(CSc1nnc(Cc2ccccc2)o1)NCc1ccc2c(c1)OCO2`, the “hERG current change (%, negative = inhibition) at 10uM” value was -5.66%.
Consider `CCC(=O)Nc1ccc2c(c1)ncn2-c1ccc(C)cc1`, for which the “hERG current change (%, negative = inhibition) at 10uM” value is listed as 4.96%.
For `COCCn1c(N)c(Sc2ccc(C)cc2)c(=O)[nH]c1=O`, the “hERG current change (%, negative = inhibition) at 10uM” value stood at 8.4%.
With `O=C(CC(c1ccccc1)c1ccco1)N1CCCCC1` (centres unmarked), the “hERG current change (%, negative = inhibition) at 10uM” value is reported as -1.93%.
With `O=C(Nc1cccc([N+](=O)[O-])c1)c1ccncc1`, the “hERG current change (%, negative = inhibition) at 10uM” value is recorded as -11.3%.
In the case of `COc1ccc(-n2c(=O)c(CCC(=O)NCCc3ccccc3F)nc3ccccc32)cc1`, the “hERG current change (%, negative = inhibition) at 10uM” value is given as -14.1%.
Under `Cc1noc(C)c1CSCC(=O)Nc1ccccc1N1CCCCC1` stands -0.57%; under `CC(=O)Nc1cccc(-c2nc3ccccc3s2)c1`, -13.4%.
Take `CCOc1ccc(S(=O)(=O)N(CC)CC(=O)NCc2ccncc2)cc1`: the “hERG current change (%, negative = inhibition) at 10uM” value is -13.2%.
Regarding `CC(CCc1ccccc1)NC(=O)C(Cc1ccccc1)NS(=O)(=O)c1cccs1` (centres unmarked), the “hERG current change (%, negative = inhibition) at 10uM” value is on record as 11.3%.
Consider `CN(CC(=O)Nc1cccc(F)c1)CC(=O)N1CCc2ccccc21`, for which the “hERG current change (%, negative = inhibition) at 10uM” value is given as -28.2%.
In the case of `Cc1csc(NC(=O)NCC2CCCC(CNC(=O)Nc3nc(C)cs3)C2)n1` (centres unmarked), the “hERG current change (%, negative = inhibition) at 10uM” value is recorded as 7.05%.
As to `CCCCN(C(=O)CC(c1ccccc1)c1ccccc1)c1c(N)n(CCC)c(=O)[nH]c1=O`, the “hERG current change (%, negative = inhibition) at 10uM” value is -7.44%.
Regarding `COc1ccc(N(CC(=O)NCc2ccc(F)cc2)C(=O)c2snc(C(N)=O)c2N)cc1`, the “hERG current change (%, negative = inhibition) at 10uM” value was 9.3%.
Consider `COc1ccc(N(CC(=O)N/N=C/c2cc3ccc(OC)cc3nc2Cl)S(=O)(=O)c2ccccc2)cc1`, for which the “hERG current change (%, negative = inhibition) at 10uM” value is 0.803%.
The figure for `CCC(C)NC(=O)Cc1ccc(-c2ccccc2)cc1` (centres unmarked) is 15.2%; for `N#CCCn1cc(/C=C2\NC(=S)N(c3ccccc3)C2=O)c(-c2ccc(F)cc2)n1` it is 18.3%.
